Data from PubChem BioAssay AID2147 (National Center for Advancing Translational Sciences (NCATS), 2009).
About 3,600 (1.6%) of roughly 230,000 compounds were called active. Inconclusive results, whose numbers are uncertain, are shown with a selection of clear calls. Calls follow the shape of the dose curve; as a rule, active = well fitted inhibition curve with a large enough effect (not every such curve was filed as active); inconclusive = small, poorly fitted or top-dose-only effect, or another doubt; inactive = no such curve, though single readings can be large or run the other way. Where the call is inconclusive, the potency comes from a doubtful curve fit.

Each compound was assayed against Lysine-specific demethylase 4E (Homo sapiens) (UniProt B2RXH2) (assay: qHTS Assay for Inhibitors of Human Jumonji Domain Containing 2E (JMJD2E)). Conditions: JMJD2E catalytic domain, FDH-coupled NADH fluorescence (FDH is formaldehyde dehydrogenase); series mostly up to 57.1 µM; activity change, negative = inhibition: at the top concentration.
Also: nearly all actives have a fitted effect of over 50% in size.
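For activity change, negative = inhibition in this document: 0% = wells with enzyme and -100% = buffer wells without enzyme.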
Potency is read from the fitted curve at half-maximal effect; tags tell the direction and shape of the fitted curve.

Sequence of UniProt B2RXH2 (B2RXH2 whole entry, looked up, the tested form may be a part): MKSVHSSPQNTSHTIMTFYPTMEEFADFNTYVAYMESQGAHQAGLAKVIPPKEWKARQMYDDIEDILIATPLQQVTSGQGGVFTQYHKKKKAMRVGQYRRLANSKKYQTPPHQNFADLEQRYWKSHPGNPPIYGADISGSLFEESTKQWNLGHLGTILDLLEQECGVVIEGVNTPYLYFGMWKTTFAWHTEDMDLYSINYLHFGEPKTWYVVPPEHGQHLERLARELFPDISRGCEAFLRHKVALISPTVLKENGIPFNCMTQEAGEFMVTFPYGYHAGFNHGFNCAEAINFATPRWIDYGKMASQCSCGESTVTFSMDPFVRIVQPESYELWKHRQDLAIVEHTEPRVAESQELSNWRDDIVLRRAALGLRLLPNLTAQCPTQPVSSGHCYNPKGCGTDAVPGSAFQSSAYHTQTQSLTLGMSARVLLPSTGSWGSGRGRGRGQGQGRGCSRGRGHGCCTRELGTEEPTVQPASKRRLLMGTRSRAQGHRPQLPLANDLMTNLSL

Row | SMILES | Potency | activity change, negative = inhibition
1 | CCCCNCCOCCOc1ccc(Cl)cc1Br | inconclusive: 20 µM [inhibitor, single point] | 
2 | CCCCSCc1nc2ccccn2c1Br | inconclusive: 25.1 µM [inhibitor, partial curve] | 
3 | CCOC(=O)c1sc2nccc(OC)c2c1N=CNOC | inconclusive: 25.1 µM [inhibitor, single point] | 
4 | CCOC(=O)c1c(C)nc(C)c2c(=O)oc3ccccc3c12 | inconclusive: 39.8 µM [inhibitor, single point] | 
5 | O=C(Nc1ccccc1)c1ccc(NCc2ccco2)c(S(=O)(=O)N2CCOCC2)c1 |  | inactive: -12.2%
6 | Cc1ccc(NC(=O)C(OC(=O)c2ccc(NC(N)=O)cc2)c2ccccc2)cc1Cl (centres undefined) |  | inactive: -0.222%
7 | CCOC(=O)CSc1nnc(CCCCCN2C(=O)c3cccc4cccc(c34)C2=O)o1 | inconclusive: 35.5 µM [inhibitor, partial curve] | 
8 | Cc1cccn2c(=O)c(C=O)c(NCc3ccccc3)nc12 | inconclusive: 35.5 µM [inhibitor, partial curve] | 
9 | COc1cccc(C2c3[nH]c4ccccc4c3CCN2Cc2cnn(C)c2)c1 (centres undefined) | inconclusive: 39.8 µM [inhibitor, single point] | 
10 | COc1ccc(NC(=O)CNc2cccc(C#N)c2)cc1Cl |  | inactive: -12.9%
11 | CC1=[N+](C)c2c(ccc3cccnc23)C1(C)C | inconclusive: 31.6 µM [inhibitor, partial curve] | 
12 | CC(C)c1nnc(NC(=O)Cn2nc(-c3ccc4c(c3)OCCO4)ccc2=O)s1 | inconclusive: 6.31 µM [inhibitor, single point] | 
13 | Cc1cc(N/N=C/c2c[nH]c3ccccc23)c2ccccc2n1 | inconclusive: 15.8 µM [inhibitor, partial curve] | 
14 | CC(=O)Nc1ccc(C(=O)NNC(=O)Cc2ccccc2)cc1 |  | inactive: 13.1%
15 | O=C1N=C(N2CCN(c3ccccc3)CC2)S/C1=C/c1ccco1 |  | inactive: -0.612%
16 | COc1ccc(/C=C/c2nnc(NC(C)=O)s2)cc1 | inconclusive: 28.2 µM [inhibitor, partial curve] | 
17 | COc1ccc2c(c1)[nH]c1c(=O)n(CCc3cnc[nH]3)cnc12 | inconclusive: 35.5 µM [inhibitor, single point] | 
18 | CCc1ccc(-c2cc(C(=O)NN3CCN(C)CC3)c3ccccc3n2)cc1 | inconclusive: 39.8 µM [inhibitor, single point] | 
19 | CCOC(=O)c1ccc(S(=O)(=O)N(CCO)Cc2cc3cc(OC)c(OC)cc3[nH]c2=O)cc1 | inconclusive: 35.5 µM [inhibitor, single point] | 
20 | O=C(O)c1cc(N/N=C/c2ccc3c(c2)OCO3)ccc1Cl | inconclusive: 39.8 µM [inhibitor, single point] | 
21 | Cc1cccc(CN2CCN(CCCc3ccccc3)CC2)c1 | inconclusive: 39.8 µM [inhibitor, single point] | 
22 | COc1ccccc1CNC(=O)c1ccc(-c2ccccc2C(F)(F)F)o1 | inconclusive: 39.8 µM [inhibitor, single point] | 
23 | COC(=O)N1C(c2ccccc2)=Cc2ccccc2C1CC(C)=O (centres undefined) |  | inactive: -25.6% [at 11.4 µM]
24 | CC(=O)N(c1ccc(C)cc1)C1C=CS(=O)(=O)C1 (centres undefined) |  | inactive: 4.59%
25 | Cc1ccc2nc(NC(=O)c3cc(-c4ccco4)nc4ccccc34)sc2c1 | inconclusive: 31.6 µM [inhibitor, partial curve] | 

Row | SMILES | Potency | activity change, negative = inhibition
26 | Cc1ccc(NC2=Nc3ccccc3CC2)cc1 |  | inactive: -1.37%
27 | COc1ccc(CN2C(=O)c3cccnc3C2O)cc1 (centres undefined) | inconclusive: 28.2 µM [inhibitor, single point] | 
28 | Cc1cccc(/C=N/NC(=O)c2cc3c(s2)-c2ccccc2CC3)c1 | inconclusive: 31.6 µM [inhibitor, partial curve] | 
29 | COc1ccc(C(=O)NC(=S)Nc2ccc(N3CCCC3)cc2)cc1 |  | inactive: -8.23%
30 | CCOC(=O)c1cc2c(=O)n3ccccc3nc2n(Cc2ccco2)c1=NC(=O)c1ccccc1OCC | inconclusive: 15.8 µM [inhibitor, partial curve] | 
31 | Oc1ccc(C=Nc2ccc(N3CCOCC3)cc2)c(O)c1 | inconclusive: 25.1 µM [inhibitor, single point] | 
32 | CCOC(=O)C1CCN(CC(=O)Nc2c(C(=O)OC)[nH]c3cccc(C)c23)CC1 | inconclusive: 28.2 µM [inhibitor, partial curve] | 
33 | CS(=O)(=O)c1cnc2c(-c3ccc(F)cc3)cnn2c1N | inconclusive: 28.2 µM [inhibitor, partial curve] | 
34 | CCOC(=O)c1cnc(-n2nc(C)cc2C)nc1NCCc1ccccc1 | inconclusive: 28.2 µM [inhibitor, partial curve] | 
35 | COc1ccc(C)cc1NC(=O)COC(=O)C1CC1 |  | inactive: 9.55%
36 | CCn1nc(NC(=O)c2cccs2)c2cc3ccccc3nc21 | inconclusive: 35.5 µM [inhibitor, partial curve] | 
37 | CN(C)C1C(=O)C(C(N)=O)=C(O)[C@@]2(O)C(=O)C3=C(O)c4c(O)ccc(Cl)c4[C@@H](O)C3C[C@@H]12 (some centres undefined) | inconclusive: 8.91 µM [inhibitor, full curve] | 
38 | COc1ccc(C(NC(=O)C2CCCCC2)c2c(O)ccc3ccccc23)cc1 (centres undefined) | inconclusive: 31.6 µM [inhibitor, single point] | 
39 | O=C(CN1C(=O)c2cccc3cccc1c23)NCc1ccccn1 | inconclusive: 20 µM [inhibitor, partial curve] | 
40 | NS(=O)(=O)c1cc(C(=O)OCC(=O)c2ccccc2)c(Cl)cc1Cl |  | inactive: -5.35%
41 | CCC(=Nc1ccccc1OC)C1=C(O)CC(c2ccccc2)CC1=O (centres undefined) |  | inactive: 0.534%
42 | O=C(Nc1ccc2c(c1)OCO2)c1c(Cl)nc2sccn12 | inconclusive: 39.8 µM [inhibitor, single point] | 
43 | COC(=O)c1ccc(C(=O)OC)c(NS(=O)(=O)c2ccc(NC(C)=O)cc2)c1 | inconclusive: 28.2 µM [inhibitor, partial curve] | 
44 | COc1ccc(S(=O)(=O)NCCSCc2ccco2)cc1OC |  | inactive: 8.36%
45 | CCc1ccc[n+](-c2[nH]c(=O)sc2/C=N/NC([S-])=Nc2ccccc2)c1 | active: 3.55 µM | 
46 | COc1ccc2c(C)cc(=O)oc2c1 | inconclusive: 25.1 µM [inhibitor, partial curve] | 
47 | COCCNC(C(=O)Nc1ccc(C)cc1[N+](=O)[O-])c1ccccc1 (centres undefined) |  | inactive: -3.35%
48 | CC1(C)CC(=O)c2sc(NS(=O)(=O)c3ccc(F)cc3)nc2C1 | inconclusive: 35.5 µM [inhibitor, single point] | 
49 | c1ccc(CCNc2ccccc2)cc1 |  | inactive: -4.09%
50 | COc1cc(OC)c2c(=O)cc(-c3ccccc3)oc2c1 | inconclusive: 25.1 µM [inhibitor, partial curve] | 

Row | SMILES | Potency | activity change, negative = inhibition
51 | Cc1ccc(-n2c(=O)[nH]c3c(oc4ccccc43)c2=O)cc1 | inconclusive: 28.2 µM [inhibitor, partial curve] | 
52 | CS(=O)(=O)c1ccc2nc(NC3(C(F)(F)F)N=C4SCCN4C3=O)sc2c1 (centres undefined) |  | inactive: 2.31%
53 | N/C(=N\OC(=O)CCC1CCCC1)c1cccc([N+](=O)[O-])c1 |  | inactive: 0.77%
54 | COc1cccc(-n2c(COc3ccc(C)cc3)nnc2SCC(N)=O)c1 |  | inactive: -0.185%
55 | O=C1CCCC2=C1C1(CCCCC1)N=C(Nc1nc3ccccc3s1)N2 | inconclusive: 6.31 µM [inhibitor, single point] | 
56 | COc1ccc(CNC(=O)c2c(N)n(CCCN3CCOCC3)c3nc4ccccc4nc23)cc1 | inconclusive: 28.2 µM [inhibitor, partial curve] | 
57 | c1ccc(OCCN2CCN(Cc3nc(-c4ccc5c(c4)OCO5)no3)CC2)cc1 |  | inactive: 1.74%
58 | CCc1cc(=O)oc2cc(C)cc(OCc3nn[nH]n3)c12 | inconclusive: 28.2 µM [inhibitor, partial curve] | 
59 | COC(=O)c1cnc(Nc2cccc(C(F)(F)F)c2)c([N+](=O)[O-])c1 |  | inactive: 0.993%
60 | COC(=O)c1ccc(NC(=O)C2CCCO2)cc1 (centres undefined) |  | inactive: 3.7%
61 | Nc1nnnn1/N=C/c1ccccc1OCc1ccc(Cl)cc1Cl | inconclusive: 39.8 µM [inhibitor, single point] | 
62 | CSc1nc2ccc(S(=O)(=O)N3CCOCC3)cc2s1 |  | inactive: -5.33%
63 | CCOC(=O)c1cc(-c2ccccc2)sc1NC(=O)c1cc(OC)c(OC)c(OC)c1 | inconclusive: 39.8 µM [inhibitor, single point] | 
64 | Cc1cc(=O)n2c(C(=O)Nc3ccc(C)c(C)c3)c(C(=O)Nc3ccccc3)sc2n1 |  | inactive: -4.05%
65 | c1cc(Nc2ncnc3sccc23)cc(-c2nnc3n2CCCCC3)c1 |  | inactive: 5.95%
66 | CCOC(=O)c1cc(C)n(S(=O)(=O)c2ccc(C)cc2)c1C | inconclusive: 10 µM [inhibitor, partial curve, poor fit] | 
67 | O=c1[nH]nc(Cc2ccc(-c3ccc(Cl)cc3)o2)c2ccccc12 | inconclusive: 22.4 µM [inhibitor, single point] | 
68 | Cc1cc(OCc2nnc(SC(C)C(=O)O)n2Cc2ccccc2)ccc1Cl (centres undefined) |  | inactive: 0.885%
69 | Cc1cc(C)c(C#N)c(SCc2ccccc2)n1 |  | inactive: -2.77%
70 | Cc1ccc(NC(=S)NC(NC(=O)c2ccco2)C(Cl)(Cl)Cl)cc1 (centres undefined) |  | inactive: 2.79%
71 | CCOc1cc(S(=O)(=O)NCCc2cccc(C)c2)c(OCC)cc1-n1cnnn1 | inconclusive: 8.91 µM [inhibitor, partial curve] | 
72 | COC(=O)c1ccc(C(NC(=O)OCc2ccccc2)/C(F)=C/[C@@H](C)C(=O)N(C)Cc2cccnc2)cc1 (some centres undefined) |  | inactive: 4.53%
73 | CCCNC(=O)c1ccc2c(=O)c(O)c(-c3cccc(Br)c3)[nH]c2c1 | inconclusive: 35.5 µM [inhibitor, single point] | 
74 | CCN(CC)C(=O)c1sc(NC(=O)c2ccc(Br)o2)c(C(=O)OC)c1C | inconclusive: 39.8 µM [inhibitor, single point] | 
